PubChem BioAssay AID1460 (National Center for Advancing Translational Sciences (NCATS), 2008)
The campaign covered roughly 270,000 compounds. About 5,800 (2.1%) were called active. This list was built around the results that the source calls inconclusive (neither active nor inactive); the mix of calls is not that of the screen. The call rests on the fitted dose curve; in most records, active means well fitted inhibition curve with a large enough effect; inconclusive means small, poorly fitted or top-dose-only effect; inactive means flat fitted curve, though single readings scatter. Where the call is inconclusive, the potency comes from a doubtful curve fit.

Target: Microtubule-associated protein tau (Homo sapiens) (UniProt P10636)
Assay: qHTS for Inhibitors of Tau Fibril Formation, Thioflavin T Binding; further: nearly all actives have a fitted effect of over 55% in size
Conditions: recombinant tau K18 P301L, heparin-induced fibrillization, ThT fluorescence; series mostly up to 57.4 µM
Summary of the method: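 Using a mix of unlabeled (15 uM) and Alexa 594-labeled (0.24 uM) tau K18 P301L, heparin-triggered fibrillization over 6 hr at 37 C was scored by ThT fluorescence.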
On the % scale 0 is the no-effect control and ±100 the full control effect; potency means the concentration at half of the fitted maximal effect; tags describe the fitted curve by direction and shape.

Sequence of UniProt P10636 (P10636 whole entry, looked up): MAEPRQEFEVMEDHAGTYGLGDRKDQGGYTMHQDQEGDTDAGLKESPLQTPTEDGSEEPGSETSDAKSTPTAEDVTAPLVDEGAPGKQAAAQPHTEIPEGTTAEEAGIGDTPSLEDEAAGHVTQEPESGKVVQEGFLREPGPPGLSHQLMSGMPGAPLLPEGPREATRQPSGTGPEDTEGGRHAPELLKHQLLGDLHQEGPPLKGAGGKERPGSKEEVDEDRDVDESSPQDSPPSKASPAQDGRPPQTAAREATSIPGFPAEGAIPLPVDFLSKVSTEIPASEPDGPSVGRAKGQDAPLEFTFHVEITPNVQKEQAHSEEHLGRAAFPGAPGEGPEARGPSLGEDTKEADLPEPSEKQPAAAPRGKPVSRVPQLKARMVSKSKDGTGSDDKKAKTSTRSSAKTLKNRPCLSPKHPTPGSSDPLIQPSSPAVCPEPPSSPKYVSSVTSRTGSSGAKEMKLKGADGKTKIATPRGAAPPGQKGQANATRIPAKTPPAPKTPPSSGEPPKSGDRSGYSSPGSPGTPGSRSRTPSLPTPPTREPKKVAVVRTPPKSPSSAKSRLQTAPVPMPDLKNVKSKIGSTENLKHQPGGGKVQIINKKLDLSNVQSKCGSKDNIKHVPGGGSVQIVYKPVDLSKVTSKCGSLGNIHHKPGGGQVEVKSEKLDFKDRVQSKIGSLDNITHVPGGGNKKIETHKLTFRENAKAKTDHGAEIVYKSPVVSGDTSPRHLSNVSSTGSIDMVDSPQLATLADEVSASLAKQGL

Compound	Potency	activity, negative = inhibition
CCOc1ccc(C(c2c(O)cc(C)n(CCOC)c2=O)N2CCN(c3ccc(F)cc3)CC2)cc1 (stereo unspecified)	inconclusive: 14.1 µM [inhibitor, partial curve]	–
CCc1ncc(C(O)c2cccc3ccccc23)n1C (stereo unspecified)	inactive	–
NNC(=O)/C(=N/Nc1ccccc1)S(=O)(=O)c1ccc(Cl)cc1	inconclusive: 20 µM [inhibitor, single point]	–
CCOC(=O)c1ccc(NC(=O)c2c(NCc3ccc(OC)c(OC)c3OC)sc3c2CCC(C)C3)cc1 (stereo unspecified)	inconclusive: 14.1 µM [inhibitor, partial curve]	–
COc1ccccc1OCC(=O)N/N=C/C=C/c1ccc([N+](=O)[O-])o1	active: 14.1 µM	–
Cc1nn(-c2ccc(N3CCCC3)nn2)c(C)c1CCC(=O)N1CCN(c2ccc(F)cc2)CC1	inconclusive: 4.47 µM [inhibitor, full curve, poor fit]	–
Cc1ccc2[nH]c(C)c(CCNC(=O)c3cc4cc(Br)ccc4oc3=O)c2c1	inconclusive: 4.47 µM [inhibitor, full curve]	–
COCC(=O)N1CCc2nc(-c3ccccc3)c3c(c2C1)CO[C@@H](C)C3	–	inactive: 0.0318% [at 11.5 µM]
OC(COc1ccc2c(c1)CCC2)CN1CCN(c2cccc(Cl)c2)CC1 (stereo unspecified)	inconclusive: 14.1 µM [inhibitor, partial curve]	–
Cc1nc(N)sc1-c1csc(Nc2ccccc2)n1	active: 11.2 µM	–
CCn1c(Cc2ccccc2)nnc1SCC(=O)Nc1ccc(N)cc1	inconclusive: 20 µM [inhibitor, partial curve, poor fit]	–
COC(=O)[C@@]1(Cc2ccccc2)[C@H]2c3cc(C(=O)N4CCCC4)n(Cc4ccc(O)c(OC)c4)c3C[C@H]2CN1C(=O)c1ccccc1	inconclusive: 39.8 µM [inhibitor, single point]	–
COc1cc(NC(=O)c2noc3c2CC(C(C)(C)C)CC3)cc(OC)c1OC (stereo unspecified)	inconclusive: 15.8 µM [inhibitor, partial curve, poor fit]	–
CC(=O)Nc1ccc(-c2csc(Nc3cccc(C)n3)n2)cc1	inconclusive: 8.91 µM [inhibitor, partial curve]	–
COCCn1c(C)cc(O)c(C(c2ccccc2Cl)N2CCN(c3ccccc3)CC2)c1=O (stereo unspecified)	inconclusive: 11.2 µM [inhibitor, partial curve, poor fit]	–
CCOc1ccc(-c2cc(CCCC(=O)NCCc3ccc(SC)cc3)no2)cc1	inconclusive: 0.447 µM [inhibitor, full curve]	–
COc1ccc(/C(C)=N/Nc2cc(C(F)(F)F)ccc2Cl)c(OC)c1	inconclusive: 17.8 µM [inhibitor, partial curve]	–
Clc1ccc(OCCCn2cncn2)cc1Cl	inactive	–
CCCOc1ccc(C(=O)Nc2ccc(NC(=O)c3ccc(Br)cc3)cc2)cc1	inconclusive: 0.447 µM [inhibitor, full curve]	–
COc1cccc(/C=N/NC(=O)c2ccc([N+](=O)[O-])cc2Cl)c1O	inconclusive: 15.8 µM [inhibitor, partial curve]	–
CCOC(=O)COC(=O)c1ccc(Oc2cc(C)nc(SC)n2)cc1	inconclusive: 28.2 µM [inhibitor, single point]	–
NC(=Nc1ccc(N)cc1)C(N)=Nc1ccc(N)cc1	active: 8.91 µM	–

Compound	Potency	activity, negative = inhibition
Cc1ccc(/C=C2\CCC3=C2OC(N)=C(C#N)C3c2ccc(C)cc2)cc1 (stereo unspecified)	inconclusive: 25.1 µM [inhibitor, partial curve]	–
COc1cccc(NC(=S)NCCc2ccccn2)c1	inconclusive: 31.6 µM [inhibitor, single point]	–
CN1CCN(C(=O)C2=C[C@H](c3csc4ccccc34)C[C@H](OCCCCO)O2)CC1	inactive	–
COCC(C)NC(=O)NC(=O)c1ccc(Cl)cc1 (stereo unspecified)	inactive	–
COc1ccc(/C=N/NC(=O)c2ccn[nH]2)cc1COc1ccc([N+](=O)[O-])c(C)c1	inconclusive: 28.2 µM [inhibitor, partial curve]	–
Fc1cccc(Cl)c1/C=N/n1c(-c2cccnc2)n[nH]c1=S	inactive	–
Cc1ccc(NS(=O)(=O)c2ccc3[nH]c4c(c3c2)CCCCCC4)cc1C	inactive	–
CCSc1nc(-c2ccc(OC)cc2)ccc1C#N	inconclusive: 25.1 µM [inhibitor, partial curve]	–
CCOC(=O)COc1ccc(C(=O)Nc2cccc(Cl)c2C)cc1	inconclusive: 25.1 µM [inhibitor, single point]	–
COc1ccc(S(=O)(=O)N(CC(=O)Nc2ccc(C)cc2)c2ccc(C)cc2)cc1OC	inactive	–
CC(=O)c1ccc(NS(=O)(=O)c2ccc3[nH]c(=O)[nH]c3c2)cc1	inconclusive: 10 µM [inhibitor, partial curve]	–
NC(=O)c1c(NC(=O)CSc2nnc(-c3ccco3)n2N)sc2c1CCCC2	inconclusive: 12.6 µM [inhibitor, partial curve, poor fit]	–
COC(=O)c1cc(C)nc(Sc2ccccc2N)n1	active: 28.2 µM	–
CC(C)[C@H](Nc1ccc(S(=O)(=O)N2CCOCC2)cc1[N+](=O)[O-])C(=O)OCC(N)=O	inactive	–
Cc1c(NC(=O)COC(=O)c2cc3c4ccccc4n(C)c3s2)c(=O)n(-c2ccccc2)n1C	inconclusive: 31.6 µM [inhibitor, partial curve]	–
CCc1c(C)c(C#N)c2nc3ccccc3n2c1Nc1c(C)n(C)n(-c2ccccc2)c1=O	inconclusive: 20 µM [inhibitor, partial curve]	–
COc1ccc(-c2noc(COc3ccc(C)cc3C)n2)cc1OC	inconclusive: 10 µM [inhibitor, partial curve]	–
CCOc1cc(C(=O)Nc2ccc3nc(N4CCN(C)CC4)cc(C)c3c2)cc(OCC)c1OCC	inconclusive: 11.2 µM [inhibitor, partial curve]	–
CC1CCC(C(=O)O)NC1c1ccc(C#CCN(C)C)cc1 (stereo unspecified)	–	inactive: 2.5% [at 11.5 µM]
CCOC(=O)c1scc(-c2ccc(C)cc2)c1S(=O)(=O)N1CCN(c2ccccc2)CC1	inconclusive: 5.01 µM [inhibitor, single point]	–
O=C(N/N=C/c1ccncc1)c1cc(Br)ccc1OCc1ccccc1	inactive	–
N#C/C(=C\c1ccc(N2CCOCC2)c([N+](=O)[O-])c1)c1nc2ccccc2[nH]1	active: 5.01 µM	–

Compound	Potency	activity, negative = inhibition
C/C(=N\Nc1nc(-c2ccccn2)nc2ccccc12)c1ccc(F)cc1	inactive	–
Cc1ccc(Nc2nc(CSc3nnnn3-c3ccccc3)cs2)cc1	inconclusive: 14.1 µM [inhibitor, partial curve]	–
CCc1cc(=O)oc2c(C)c(OCC(=O)Nc3ccc(S(=O)(=O)N(CC)CC)cc3)ccc12	inactive	–
COc1ccc(S(=O)(=O)Nc2nc3ccccc3nc2Nc2ccc3c(c2)OCO3)cc1	inconclusive: 3.55 µM [inhibitor, full curve]	–
Cc1ccc(NC(=O)COc2ccc(/C(N)=N/O)cc2)cc1C	inconclusive: 10 µM [inhibitor, partial curve]	–
CCN(CC)CCOc1ccc(/C(=C(/Cl)c2ccccc2)c2ccccc2)cc1	inconclusive: 20 µM [inhibitor, single point]	–
CCN1C(=O)/C(=C/C=C2/Sc3ccc4ccccc4c3N2CCO)SC1=S	inconclusive: 3.16 µM [inhibitor, full curve]	–
Cc1ccc(NC(=O)c2cc(NC(=O)c3ccco3)ccc2N2CCOCC2)cc1	inactive	–
Cn1nccc1C(=O)Oc1ccc(/C=N/NC(=O)c2ccccc2O)cc1	inconclusive: 2.51 µM [inhibitor, full curve]	–
Cc1nc2ccc3[nH]snc3c2n1	inconclusive: 20 µM [inhibitor, single point]	–
CC(C)NS(=O)(=O)c1ccc(NC(=S)NC(=O)c2cccc([N+](=O)[O-])c2)cc1	inactive	–
NC(Cc1cnc[nH]1)C(=O)Nc1ccc2ccccc2c1 (stereo unspecified)	inactive	–
O=C(O)c1ccc(N/N=C/c2ccc(C(F)(F)F)cc2)cc1	inconclusive: 22.4 µM [inhibitor, partial curve, poor fit]	–
Cc1cccc(N2CCN(C(=O)CCNS(=O)(=O)c3ccc4c(c3)CCN4C(=O)C3CC3)CC2)c1C	inconclusive: 15.8 µM [inhibitor, partial curve, poor fit]	–
C/C(=N\OC(=O)NC1CCCCC1)c1sc(-c2ccccc2)nc1C	inconclusive: 35.5 µM [inhibitor, partial curve]	–
COc1ccc2nc(NC(=O)c3nc(S(=O)(=O)Cc4ccc(C)cc4)ncc3Cl)sc2c1	active: 5.62 µM	–
CN(CC[C@@H](Oc1ccc(-c2ccccc2)cc1)c1ccc(F)cc1)CC(=O)O	inconclusive: 12.6 µM [inhibitor, partial curve, poor fit]	–
COc1ccc(/C=C(/C(=O)NCc2ccccc2)c2ccccc2)cc1	inconclusive: 39.8 µM [inhibitor, single point]	–
COc1ccc(Nc2cc(C)c3cc(NC(=O)COc4cccc(C)c4)ccc3n2)cc1	active: 7.08 µM	–
O=c1cc(CN2CCc3ccccc32)c2ccc(O)cc2o1	inconclusive: 28.2 µM [inhibitor, partial curve]	–
Cc1cc(/C=C2/NC(=O)NC2=O)c(C)n1-c1sc2c(c1C#N)CCCC2	inconclusive: 28.2 µM [inhibitor, partial curve]	–
COc1ccc(-c2c[n+](CC(=O)N3c4ccccc4Sc4ccccc43)c3n2CCC3)cc1	inconclusive: 39.8 µM [inhibitor, single point]	–
